Measured values: the supplement of paper PMC10126150
Values marked as one replicate rest on one cluster of the flow cell; about a third of the high ones do not repeat.

Tested on: ATP
Assay: switch fluorescence ratio, 500 uM ATP over buffer (Cy3 cluster intensity, sum of 5 cycles each) (fold (ratio)); higher = stronger signal-on switching upon ATP binding; sequences stand for … in TCGTCGGCAGCGTCAGATGTGTATAAGAGACAGTTTTTTTTTTTTTTTTTTTTTTTTT…TC
Details: aptamer strand: ATP DNA aptamer (quencher-CACCTGGGGGAGTATTGCGGAGGAAGG + anchor), 100 nM annealed; ATP concentration: 500 uM; one replicate
Summary of the method: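 Cy3-labelled switching-strand clusters on a modified Illumina MiSeq flow-cell were annealed to 100 nM quencher-labelled ATP aptamer and imaged first in selection buffer, then after 15 min with 500 uM ATP at 22 °C. NaOH stripping and re-annealing separated each of five buffer/ATP cycles, and clusters outside 100-1000 RFU were excluded. The fluorescence ratio sums target-cycle Cy3 intensity over buffer-cycle Cy3 intensity per cluster and averages it per switch-domain sequence.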
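Further: ATP exposure 15 min at 22 °C before imaging.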

| Sequence | switch fluorescence ratio |
| --- | --- |
| CGTTGTCGTG | 1.03 |
| CACAGTGAGG | 0.962 |
| CTCGGATCCT | 1 |
| TTCGATCGAC | 1.04 |
| ATTGTCTTG | 0.969 |
| AGGCACCATG | 0.995 |
| ATGGTTGGCA | 0.998 |
| GGGCGCTAGT | 1.01 |
| TTCGGATGCT | 0.983 |
| GTCTTTAGAT | 1.03 |
| CCAGGGTCGT | 1.02 |
| CGCGAGGGCG | 0.973 |
| GATCACAGGC | 1.07 |
| ACGGTTTAAA | 1.06 |
| CGCAGTTTTG | 0.957 |
| ATATATGACC | 1.07 |
| TTCAAACGCT | 1.06 |
| GCCAAATTCG | 0.991 |
| AGCGGTTTGA | 0.971 |
| TCAACTCCGA | 1.29 |
| TTAGTCCATG | 1 |
| ACGTTACTTT | 1.4 |
| AGGGGACGGA | 1.01 |

| Sequence | switch fluorescence ratio |
| --- | --- |
| TTATGTTAAT | 1.03 |
| TCTTGCATTA | 0.995 |
| GTTGAGTTTA | 1.01 |
| CCACGCGGCG | 0.998 |
| GGCACCCGCA | 1.12 |
| GTAGCGTAAG | 0.996 |
| TGGATGTTAG | 0.995 |
| CGTGGAGCGC | 0.975 |
| AGTCTTTTCG | 1.03 |
| ATTTAACCGG | 1.01 |
| CGGAAGTCAC | 1.2 |
| TAAACAGGTT | 0.964 |
| CGACCTTAAG | 0.97 |
| TCAACATAGC | 0.996 |
| AGAGCGGGAC | 1.38 |
| GGTACAGGCG | 1.01 |
| AAGTTTGGTC | 0.921 |
| ATTGCAACAA | 1.08 |
| GAGGAACGGT | 1.02 |
| TGCCCCATTC | 0.997 |
| GCCGTCGAGG | 1.02 |
| TTCGCACCGC | 1.09 |
| GGGTGCCGTT | 0.932 |

| Sequence | switch fluorescence ratio |
| --- | --- |
| ATGTGGGCCC | 1.02 |
| CAACGCTGTA | 1.05 |
| GAAATGGATG | 1.03 |
| TCCTCAGCGC | 4.07 |
| ACACTAGCTG | 1.04 |
| GAGAGAGATT | 0.989 |
| TGCGTTATG | 1.03 |
| GTCGTAGCTC | 1.11 |
| AAGCTTACAG | 1.09 |
| TTCGAGATTA | 0.995 |
| TATATCATTT | 1.01 |
| GTGATTCAAC | 0.965 |
| CGGCTTGGAA | 1.03 |
| CAGTCTCGGC | 0.984 |
| CAGACAGGGT | 1.01 |
| GTCCGGAGTC | 1.3 |
| TCCATTTCCC | 0.979 |
| GGTATCATCT | 0.952 |
| GACAGTGGAT | 1.01 |
| TGGAGTTTTG | 0.976 |
| CCCAGCCTTC | 1.49 |
| TATGCCACAA | 1.05 |
| CCGCGGGGCA | 1.38 |

| Sequence | switch fluorescence ratio |
| --- | --- |
| CTGACCAGGA | 1.03 |
| GCAAGTTTCT | 1.02 |
| TGAGGTGATA | 1.03 |
| AAGAAATGGC | 0.951 |
| CCGGGTATTC | 1.34 |
| AACTTGTGTT | 1.01 |
| CATCAAAACC | 1.04 |
| TCGGGTACAG | 1.03 |
| CTGTGCTTAT | 1.01 |
| TTACAATCTT | 1.02 |
| AAGGAACGTC | 0.984 |
| ATTGACGACG | 1.05 |
| TCTGAAGTCG | 1.08 |
| AAACTAATAA | 1.06 |
| GCTTGCCTAT | 0.975 |
| TGAGCGAGGA | 1.09 |
| TTATTTGACC | 1 |
| TATATAATTA | 1.02 |
| TCTGGCATTT | 1.08 |
| AAATTGGTT | 1.03 |
| ACCTCAACTA | 1.25 |
| AAGAATCTCC | 1.08 |
| CGGGGTGCA | 1.01 |

| Sequence | switch fluorescence ratio |
| --- | --- |
| GCGTCGTTGT | 1 |
| GATTTTATAG | 0.943 |
| CGCATGTGTA | 0.997 |
| AGGAGGGCTA | 0.939 |
| AGGGCTGGCT | 0.974 |
| TTCCATTAAC | 0.996 |
| CTGGGGGCT | 1.01 |
| CGGATTTATT | 0.982 |
| TAATGCGGTA | 1.02 |
| ACGTAAAATG | 1.07 |
| TCCTGTCACG | 1.06 |
| AACGGGTCGG | 1.01 |
| CAGGACTGG | 0.959 |
| CAGCGTAGTC | 1.07 |
| TGCATATGAA | 1.03 |
| GATCGACATT | 1.07 |
| GAGACAAGTC | 0.932 |
| TACTGAGGAG | 1.03 |
| GCAACCGGAT | 1.01 |
| TATGCAATCG | 1.05 |
| GCAGTAGAC | 1.41 |
| GTTGCCCGGT | 1.01 |
| GTAGTCGATA | 1.02 |

| Sequence | switch fluorescence ratio |
| --- | --- |
| TTCGTCCCGG | 1.09 |
| TTCTCTGATA | 1.02 |
| AGCTCTTGCC | 1.02 |
| TTTAGCGAGA | 0.988 |
| GGGCAAACCT | 2.23 |
| AGCTTTCCCC | 1.04 |
| AAAACTGCCG | 0.968 |
| GACTTCAGTG | 0.995 |
| GCAGGTTAGA | 1 |
| ACATCCCAGT | 1.06 |
| CGTATTACAG | 0.997 |
| CAGACCCGAG | 0.972 |
| ACGTCTAAGT | 1.05 |
| GTACTCGCGA | 1.18 |
| GTCTTCCGAT | 1.17 |
| CGAAAGTGTT | 1.13 |
| ACGCCCAGAA | 1.04 |
| GTGGTTTTT | 0.985 |
| GACCTGGGCA | 0.993 |
| CTCTTTTTTG | 0.973 |
| ACTGGGAATA | 1.02 |
| TGAAGTAGAA | 0.973 |
| TATCGTTGGC | 0.927 |

| Sequence | switch fluorescence ratio |
| --- | --- |
| GGCCGCCTG | 0.989 |
| AGCTAGGGGT | 1.03 |
| GCTAATTCTG | 1 |
| ACAGGGATCT | 0.982 |
| ATCCACTTAA | 1.07 |
| ACCAAAAAGT | 0.957 |
| TGCGATGCTG | 1.04 |
| GCAGCCGTGG | 1.01 |
| AAGCGAACCA | 1.01 |
| CTGAGGAAAG | 1 |
| CCTGACTCAC | 2.5 |
| TTGACAGGTA | 1.06 |
| GAGGAGAGTT | 1.02 |
| TAAATCGTGT | 1.06 |
| ATACGCACTG | 1.77 |
| AATAATTCAA | 0.975 |
| TGAGCGCAGT | 1.07 |
| GGGTGCGGAT | 1.02 |
| CGCCAATCAG | 1.05 |
